Experimental data: the supplement of paper PMC10126150
Sequences with one replicate were seen in a single cluster, so their values are uncertain.

Test system: ATP
Test: switch fluorescence ratio, 500 uM ATP over buffer (Cy3 cluster intensity, sum of 5 cycles each) (fold (ratio)); higher = stronger signal-on switching upon ATP binding; sequences stand for … in TCGTCGGCAGCGTCAGATGTGTATAAGAGACAGTTTTTTTTTTTTTTTTTTTTTTTTT…TC
Conditions: aptamer strand: ATP DNA aptamer (quencher-CACCTGGGGGAGTATTGCGGAGGAAGG + anchor), 100 nM annealed; ATP concentration: 500 uM; one replicate
Procedure, shortened: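 Exposure to 500 uM ATP lasted 15 min at 22 °C before imaging, and a selection-buffer image was taken beforehand, for Cy3-labelled switching-strand clusters on a modified Illumina MiSeq flow-cell annealed to 100 nM quencher-labelled ATP aptamer. Five buffer/ATP cycles were run with NaOH stripping and re-annealing between them. The fluorescence ratio per cluster is summed target-cycle over summed buffer-cycle Cy3 intensity, averaged per switch-domain sequence. Clusters outside 100-1000 RFU were excluded.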

| Sequence | switch fluorescence ratio |
| --- | --- |
| ATTAATCTCC | 1.07 |
| CACTATGCCA | 1.02 |
| GATATTATGC | 0.988 |
| ACACGGGATA | 1.09 |
| AGAAATATGG | 0.987 |
| GAGAAAAAA | 1 |
| GGAAGCTGCG | 1.13 |
| AATTAGCTAT | 1.01 |
| TCTAGCAGTC | 1.06 |
| GGAGTTCCGT | 1 |
| CGGCATTTAT | 0.992 |
| TGCCCTCGTT | 0.989 |
| TACCCTACTC | 1.19 |
| AGGTACTTGG | 0.999 |
| AATAAACTGG | 1.06 |
| GGAGGCCTAT | 1.02 |
| CCAAATTTCG | 1.04 |
| TGTATATGCT | 0.99 |
| AGGTTGGTAG | 0.984 |
| AGAGTTCATG | 0.997 |
| GAGAAACGCC | 1.01 |
| GAGTTCGGTC | 1.05 |
| ATAAATCGAG | 0.989 |
| CGTAGTCCTG | 0.998 |
| AGCGGGCGTG | 0.987 |

| Sequence | switch fluorescence ratio |
| --- | --- |
| GCATTCATCC | 1.29 |
| CGACGACATT | 1.94 |
| TTAGATTGG | 1.02 |
| AAATTTAGAA | 0.993 |
| TTTTGCAATC | 2.65 |
| GGATGATTGA | 0.916 |
| TTCTCGCGCT | 1.27 |
| TGACTGGAAA | 0.99 |
| TAGGTGTAAG | 0.993 |
| TCCCGTTGCG | 1.02 |
| ACGATCAGG | 1.2 |
| GAGCCTAACC | 1.03 |
| TGGTAAGGAC | 1.06 |
| AATTTCTAGA | 0.969 |
| TGTGCGTCGT | 0.961 |
| GCCATTGCGT | 1.01 |
| GCGAAGACTT | 0.98 |
| AGTTCACTGT | 1.01 |
| ATGATAATTG | 1 |
| CGCATGAATT | 1.03 |
| TAGAGTATCA | 1.01 |
| CGGTTTCTGA | 0.987 |
| TTTACGACCA | 1.19 |
| AAGTCTGGAC | 0.989 |
| GCCGGGTGCC | 1.07 |

| Sequence | switch fluorescence ratio |
| --- | --- |
| AGATGGGTCG | 0.992 |
| CCGAGGTATT | 2.28 |
| ACTTAGTACG | 1.09 |
| GCCCGGTCAG | 0.996 |
| GAGTCGGCAG | 1.04 |
| GATGCGCGCT | 0.946 |
| GAGGTAGTAG | 0.961 |
| TGTACGAGTG | 1 |
| TATTGGGAC | 0.963 |
| GCCGCAGCT | 1.13 |
| GTTGATATAA | 0.962 |
| AGGAGGTCAG | 0.946 |
| GGCACTGTGG | 1.03 |
| GTTATAGTTC | 0.988 |
| CTTTGAGGCT | 1.02 |
| ATTACCCGGC | 1.02 |
| AGTTCCCATT | 1.05 |
| ACACGCCCAG | 1.33 |
| ATTCAGGAAA | 1.26 |
| TTATGGATGC | 1.04 |
| AAGGCGGTAG | 1.02 |
| AACCGCTTAA | 1.35 |
| TTCGGACTC | 1.59 |
| TGCTC | 1.03 |
| GTTCCTTAGT | 0.946 |

| Sequence | switch fluorescence ratio |
| --- | --- |
| ATTAGGGACA | 1.32 |
| AATATGACCC | 1.15 |
| ATGATAGGCC | 1.02 |
| CAGCCCTGCC | 1.11 |
| AAATTTAGG | 1.01 |
| GTGCTAGGGA | 0.991 |
| GCTCTTTTTC | 1.01 |
| CGCATGCGGA | 1.01 |
| TATTTCCATA | 0.987 |
| TTGGAGAAGT | 0.938 |
| AGCTGGCTTT | 0.987 |
| TTCATATGGG | 0.969 |
| ATATCAGAT | 0.984 |
| CTTTATAGAG | 0.977 |
| GAGCACTAAA | 0.988 |
| AGGGTGAACA | 0.945 |
| CTCATAAGTA | 1.01 |
| TGCTGGGCGC | 0.976 |
| GCGTTCATAT | 0.984 |
| TATTCCGAAA | 1.78 |
| TATAGGATCT | 0.969 |
| AATGGTCCAG | 1.01 |
| AACAGACTAC | 1.09 |
| TTGGGTCTCA | 0.954 |
| ACGCTTAGTT | 1.04 |
